Laboratory results as given in US20230213525A1, “DETECTING MICROBIAL INFECTION IN WOUNDS” (QUALIZYME DIAGNOSTICS GMBH & CO KG, priority 2016, published 2023).
Where two headings read alike, the source gives them in different places.

Biological target: T1, Cathepsin (Homo sapiens, UniProt P08311)
T1 sequence (P08311 21-244): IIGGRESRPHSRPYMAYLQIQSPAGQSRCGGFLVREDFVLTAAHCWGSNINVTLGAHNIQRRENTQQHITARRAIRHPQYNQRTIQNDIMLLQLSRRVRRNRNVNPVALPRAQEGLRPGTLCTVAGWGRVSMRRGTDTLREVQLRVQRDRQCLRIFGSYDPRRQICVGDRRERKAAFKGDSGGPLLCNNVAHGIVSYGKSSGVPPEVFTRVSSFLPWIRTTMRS
Conditions: 5 µL, 3.0 mM substrate, 20 to 30 minutes

For “N-succinyl-ala-ala-pro-phe-p-nitroanilide”, the Test response (infected sputum samples A, B, C) was “yellow” and the Test response (non infected sputum samples D, E, F) was “No colour change”.
